Results: the supplement of paper PMC10126150
Sequences with one replicate were seen in a single cluster, so their values are uncertain.
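Note: ATP exposure 15 min at 22 °C before imaging.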

Each sequence was assayed on ATP (assay: switch fluorescence ratio, 500 uM ATP over buffer (Cy3 cluster intensity, sum of 5 cycles each) (fold (ratio)); higher = stronger signal-on switching upon ATP binding; sequences stand for … in TCGTCGGCAGCGTCAGATGTGTATAAGAGACAGTTTTTTTTTTTTTTTTTTTTTTTTT…TC). Settings: aptamer strand: ATP DNA aptamer (quencher-CACCTGGGGGAGTATTGCGGAGGAAGG + anchor), 100 nM annealed; ATP concentration: 500 uM; one replicate.
Summary of the method: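 Cy3-labelled switching-strand clusters on a modified Illumina MiSeq flow-cell were annealed to 100 nM quencher-labelled ATP aptamer and imaged first in selection buffer, then after 15 min with 500 uM ATP at 22 °C. NaOH stripping and re-annealing separated each of five buffer/ATP cycles, and clusters outside 100-1000 RFU were excluded. The fluorescence ratio sums target-cycle Cy3 intensity over buffer-cycle Cy3 intensity per cluster and averages it per switch-domain sequence.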
With AACGATTATT the switch fluorescence ratio was 1.03. Sequence CGATGTTTCG has a switch fluorescence ratio of 0.979. Sequence CAGACGGGAA has a switch fluorescence ratio of 1.15. TCCAGACCCC showed a switch fluorescence ratio of 1.1. With TGTTTCCTCG the switch fluorescence ratio was 1.07. For CGAATCCTGG, the switch fluorescence ratio was 1.06. AAGTGCAGGC gave a switch fluorescence ratio of 1.03. ATGCATCGGT showed a switch fluorescence ratio of 1. In the case of AGTGGTGCGG, the switch fluorescence ratio is reported as 0.917. For TATCACCCCA, the switch fluorescence ratio was 1.05. GGTTTTTAGT showed a switch fluorescence ratio of 1. GAGACTCGGT gave a switch fluorescence ratio of 0.953. For CAGGCTATGT, the switch fluorescence ratio was 0.976. Sequence GGTAGGAAGG has a switch fluorescence ratio of 1.05. CGTAATATAC was tested, and the switch fluorescence ratio was 3.03. CGGTTGTTA showed a switch fluorescence ratio of 0.919. Sequence TCGTATGGCA has a switch fluorescence ratio of 1.04. With ATCGGTGGTC the switch fluorescence ratio was 1.01. GCGAAAAGGT showed a switch fluorescence ratio of 0.962. Sequence GTTTTTCTTG has a switch fluorescence ratio of 0.988. TTGAGGTGCT gave a switch fluorescence ratio of 0.96. Sequence GGAGACAGAA has a switch fluorescence ratio of 1. With TTGTGGTAGG the switch fluorescence ratio was 0.978. TTTAATTCG showed a switch fluorescence ratio of 1.03. For TAATTTAACT, the switch fluorescence ratio was 1.1. Work on TAGGTGGATG yielded a switch fluorescence ratio of 1.03. In the case of TTAGTAACAT, the switch fluorescence ratio is reported as 0.984. In the case of TCTTGCTAT, the switch fluorescence ratio is reported as 1.02. With CACCCCGCTA the switch fluorescence ratio was 3.46. Sequence GATCAGGACA has a switch fluorescence ratio of 0.982. ATTGATAGTG showed a switch fluorescence ratio of 0.96. For GAATAGAATG, the switch fluorescence ratio was 0.976. GATTTGTCCG was tested, and the switch fluorescence ratio was 0.999. In the case of GTGACGCTGC, the switch fluorescence ratio is reported as 1.75. With GGTTATTTCG the switch fluorescence ratio was 1.02. In the case of CTTTAAGATC, the switch fluorescence ratio is reported as 1.07. AATAATAAG showed a switch fluorescence ratio of 0.971. AAGCGAGTCG gave a switch fluorescence ratio of 0.998. For GGAAACGCTG, the switch fluorescence ratio was 1.06. GATTGTGTGC gave a switch fluorescence ratio of 0.974. Work on AATCCGAGGT yielded a switch fluorescence ratio of 0.977. With TGTGGGAAGC the switch fluorescence ratio was 1. With TCGGTTGGAT the switch fluorescence ratio was 0.966. Sequence TCATTGCGA has a switch fluorescence ratio of 1.32. Work on TAGTGTCTTG yielded a switch fluorescence ratio of 0.988. Work on ATGTAATGCG yielded a switch fluorescence ratio of 0.994. TATTGACTCT gave a switch fluorescence ratio of 1.04. For CACCCACCAT, the switch fluorescence ratio was 1.36. Work on GTGTTAAGAT yielded a switch fluorescence ratio of 1. TGTTATAGGC gave a switch fluorescence ratio of 0.982. GATACCTGCA gave a switch fluorescence ratio of 1.12. CTAGGAGTAT gave a switch fluorescence ratio of 0.998. For TACGTTGCTC, the switch fluorescence ratio was 1.08. In the case of CACTCACATC, the switch fluorescence ratio is reported as 1.29. GGGCAAT showed a switch fluorescence ratio of 1.4. ACCTGTAAGT gave a switch fluorescence ratio of 1.08. With TGGTTAGTAG the switch fluorescence ratio was 0.997. CCTGGGGCTC gave a switch fluorescence ratio of 1.06. TACGGGGTTC showed a switch fluorescence ratio of 0.958. TCAAGCAATC was tested, and the switch fluorescence ratio was 4.73. CGGCACGGGA gave a switch fluorescence ratio of 0.98. TGCTTTGGTA gave a switch fluorescence ratio of 1.01. Sequence TTCAACGCTG has a switch fluorescence ratio of 1.13. TATCCGGGCA gave a switch fluorescence ratio of 1.08. Work on ATGTACGGTG yielded a switch fluorescence ratio of 1.09. Sequence TTGGTGCATC has a switch fluorescence ratio of 0.96. CGATAACTTC showed a switch fluorescence ratio of 1. CCGACGTGTT showed a switch fluorescence ratio of 3.73. TGGTCACGAC gave a switch fluorescence ratio of 0.973. Sequence CGAGATGCGC has a switch fluorescence ratio of 0.993. ACTAATGGGG was tested, and the switch fluorescence ratio was 0.962. For TAACTGGGAC, the switch fluorescence ratio was 1.03. For CGATCGATCA, the switch fluorescence ratio was 1.01. In the case of TTCCGTTCGT, the switch fluorescence ratio is reported as 0.981. For TTGTATCAAT, the switch fluorescence ratio was 1.03. In the case of ACTAAATGGT, the switch fluorescence ratio is reported as 1.02. For AGGCGAGCAG, the switch fluorescence ratio was 0.997. TCGGAAGACT gave a switch fluorescence ratio of 1.28. Work on CTCCTGGGTG yielded a switch fluorescence ratio of 5.46. In the case of ACCTATCGCT, the switch fluorescence ratio is reported as 1.15. Sequence ATAGTTAGGG has a switch fluorescence ratio of 1.04. Sequence GGGAACAAAT has a switch fluorescence ratio of 1.02. With CTCAAAGAGA the switch fluorescence ratio was 0.967. With GTTTCTCTGT the switch fluorescence ratio was 0.993. GGCTTGAAC was tested, and the switch fluorescence ratio was 1.11. GGCAGATACG gave a switch fluorescence ratio of 1.13. For CGCTTGAAAC, the switch fluorescence ratio was 1.1. Sequence GTTAATTGCT has a switch fluorescence ratio of 0.973. GACAATAGAC was tested, and the switch fluorescence ratio was 3.98. For GGTATCGCG, the switch fluorescence ratio was 1.03. CTGGAGGTAA showed a switch fluorescence ratio of 1.16. Work on GATGTCGGGA yielded a switch fluorescence ratio of 0.99. For AAATTGTAGT, the switch fluorescence ratio was 1. AATTCCTGTC showed a switch fluorescence ratio of 0.887. For GACGGGCCGA, the switch fluorescence ratio was 1.07. For AGCCTGAGTG, the switch fluorescence ratio was 0.986. Sequence CATAGGTGGT has a switch fluorescence ratio of 0.975. With GATTGCCTCG the switch fluorescence ratio was 0.966. CAGCTCGAC showed a switch fluorescence ratio of 1.47. TAGAAACTAG gave a switch fluorescence ratio of 1.03. In the case of GATGGCAAGC, the switch fluorescence ratio is reported as 2.31. For GTGATAACGC, the switch fluorescence ratio was 0.998. For AATGCAGCAC, the switch fluorescence ratio was 1.27. For TATCGATGCA, the switch fluorescence ratio was 0.982. In the case of ATTGCAATAG, the switch fluorescence ratio is reported as 2.27. Work on CGTCATCGGC yielded a switch fluorescence ratio of 1.01. CAGTTTAGCA showed a switch fluorescence ratio of 1.04. TCCCCCTAGA gave a switch fluorescence ratio of 1.09. Work on CAAGGAGTAT yielded a switch fluorescence ratio of 0.962. With ACGTCTTATC the switch fluorescence ratio was 1.05. Sequence ATAAATTCAC has a switch fluorescence ratio of 1.02. ACTAAGAGTG gave a switch fluorescence ratio of 0.98. TTGCTATTTG gave a switch fluorescence ratio of 0.988. In the case of CGGACCCGGG, the switch fluorescence ratio is reported as 1.15. In the case of CCGTAGGGGG, the switch fluorescence ratio is reported as 1.04. Work on ACGGTCCTGT yielded a switch fluorescence ratio of 1.01. For TGGGGTTAA, the switch fluorescence ratio was 0.926. In the case of ATATCTATTA, the switch fluorescence ratio is reported as 0.965. For CGTGGAATGA, the switch fluorescence ratio was 1.02. In the case of TGTGACCAAT, the switch fluorescence ratio is reported as 1. For TAGTGTTTTG, the switch fluorescence ratio was 0.969. ATCCGATTCC showed a switch fluorescence ratio of 1.12. With CCAGTCCTTA the switch fluorescence ratio was 0.979. CGTTAATAGG was tested, and the switch fluorescence ratio was 1.03. For CGGACCATCA, the switch fluorescence ratio was 1.02. GACCTCGAGT showed a switch fluorescence ratio of 0.987. Sequence ACACCTAGTC has a switch fluorescence ratio of 1.12. CTCGCTTGAC gave a switch fluorescence ratio of 1.83. Work on TCATAGTAGA yielded a switch fluorescence ratio of 1.01. CGGTGTGCTA showed a switch fluorescence ratio of 1.03. Sequence AGTCCGGTAA has a switch fluorescence ratio of 1.16. Work on GCTCCGTCAG yielded a switch fluorescence ratio of 4.67. For CCCCAGCCGC, the switch fluorescence ratio was 2.18. GCTTCAATG gave a switch fluorescence ratio of 1. GCCCGGAAAA was tested, and the switch fluorescence ratio was 1.01. Work on TACTGGTTAC yielded a switch fluorescence ratio of 1.07. For ACATGATGCT, the switch fluorescence ratio was 0.985. With GTGGGACCGC the switch fluorescence ratio was 0.95. GAGTTGAATA was tested, and the switch fluorescence ratio was 1.01. With ATAAGTCCG the switch fluorescence ratio was 0.993. Sequence CGCTCCACCC has a switch fluorescence ratio of 1.36. TAAGTGCAA was tested, and the switch fluorescence ratio was 1.22. For TCTGACGGGG, the switch fluorescence ratio was 1.04. In the case of ATCCGGCTTC, the switch fluorescence ratio is reported as 0.972. CGTGGGCAGG showed a switch fluorescence ratio of 1.04. For TATTTAACAG, the switch fluorescence ratio was 1.05. CACGGGGGCA gave a switch fluorescence ratio of 1.01. With AAAACTGTGA the switch fluorescence ratio was 1.04. Work on ATTGAGCCCT yielded a switch fluorescence ratio of 1.01. Sequence CAACAGTCGC has a switch fluorescence ratio of 1.03. In the case of TCCTATGCAG, the switch fluorescence ratio is reported as 1.37. GAAATCAGAG gave a switch fluorescence ratio of 0.974. CTATTACAG gave a switch fluorescence ratio of 1.02. With AAGCTGGGT the switch fluorescence ratio was 0.99. ACGGGCTGCC gave a switch fluorescence ratio of 1.03. In the case of GACCTGAGGC, the switch fluorescence ratio is reported as 1.05. Work on AGGGGAACCA yielded a switch fluorescence ratio of 0.988.
